# Measurements taken from patent publication US20220193181A1 (priority 2020, published 2022).
# Read-outs that look alike come from different tables or passages of the source.
# Columns and labels:
# [1] = tested on: THP-1 derived macrophage; assay: Secretion of pro- or anti-inflammatory cytokines in LPS stimulated THP-1 derived macrophage (ELISA); conditions: LPS 100 ng/ml, 48 hr; GSNO 10 μM, N6022 1 μM, N91115 1 μM, pretreated 1 hr; ELISA of media
# Protocol: (§1) THP-1 cells were cultured in the presence of PMA (50 ng/ml; treated for 48 hr) for differentiation into macrophages. […] The levels of IL-10, IL-6, TNF-α and IFN-7 in the media were quantified by enzyme-linked immunosorbent assay (ELISA). Bars represent the means±SEM from three independent experiments. Significant differences between means of media alone and individual stimuli are indicated: **p≤0.01, ***p≤0.001 as compared to the control group. +p≤0.05, ++p≤0.01, +++p≤0.001 as compared to LPS treated group. N.S. represents not significant.
# Macrophages are the major source of IL-6 among the innate immune system. […] GSNO as well as inhibitors of GSNOR (V6002 and N9111) inhibit the expression of proinflammatory cytokines (TNFα, IFNγ and IL-6) in LPS stimulated THP-1 cells, a human macrophage cell line.
# [2] = tested on: THP-1 human macrophage cell line; assay: IL-6 and IL-10 mRNA in LPS stimulated THP-1 macrophage (qPCR); conditions: LPS 100 ng/ml, 6 hr, GSNO 10 μM, N6022 1 μM, N91115 1 μM
# Protocol: as §1, with “IL-10” for “IL-10, IL-6, TNF-α”, “IL-6 mRNA” for “IFN-7 in the media”, “analyzed” for “quantified”, “quantitative PCR (qPCR).” for “enzyme-linked immunosorbent assay (ELISA).”, “indicated: *p≤0.05,” for “indicated:”
# [3] = tested on: Splenic B cells; conditions: GSNO 50 μM; for IL-6 production / IL-10 production: ELISA
# Protocol: Splenic B cells purified from C57BL/6 mice were stimulated with IgM-specific goat F(ab′)2 Ab (@IgM: 10 μg/ml; Invitrogen #16509285) and co-stimulated (CS) with rBAFF (100 ng/ml; R&D #2149BF) and anti-CD40 Ab (10 μg/ml; Enzo #ALX805046) with/without GSNO (50 μM) pretreatment (1 hr). After 43 hr incubation, the cells were further incubated with PMA/ionomycin/Brefeldin-A for 5 hr. (FIG. 3A) Then, the levels of IL-10 (i) and IL-6 (ii) were analyzed by ELISA. (FIG. 3B) The numbers of B cells (B220^+) (i), IL-10^+ B cells (B220^+IL-10^+) (ii), and IL-6^+ B cells (B220^+IL-6^+) (iii) were analyzed by flow cytometry. (FIG. 3C) The numbers of CD1d^hiCD5^hi B cells (B220^+) (i), IL-10^+ (ii) and IL-6^+ CD1d^hiCD5^hi B cells (B220^+) were analyzed. (FIG. 3D) The numbers of CD1d^loCD5^hi B cells (B220^+) (i), IL-10^+ (ii) and IL-6^+ CD1d^loCD5^hi B cells (B220^+) were analyzed. […] The “n” represents the number of cell cultures.
# In adaptive immunity, B cells are the major source of IL-6. […] Activated B cells (CD5^hi 96) expressing high levels of CD1d are reported to produce high levels of IL-10 (so-called Breg).
# [4] = tested on: Human blood B cells; conditions: anti-IgM/IgG, rBAFF, anti-CD40 stimulated; GSNO 50 μM
# Protocol: (§2) FIGS. 4A-C. B cell/ASC subset-specific effect of GSNO on the expression of IL-10 versus IL-6. […] Then, the numbers of total, IL-10^+, or IL-6^+ B cell/ASC subsets (Bla, Bib, Breg, transitional B cells (T1, T2), marginal zone (MZ) B cells, MZ precursor B cells (MZP), follicular B cells (FO), memory B cells, plasmablasts, and plasma cells) were analyzed by flow cytometry. Please see table 1 for the phenotyping of these subsets of cells. (FIG. 4B) Human blood B cells (Stemcell cat #: 70023) were stimulated with anti-IgM/IgG Ab (@IgM: 10 μg/ml; eBioscience #16-509985) and co-stimulated with rBAFF (100 ng/ml; R&D #2149BF) and anti-CD40 Ab (1 g/ml; Enzo #ALX805046) in the presence or absence of GSNO (50 μM/1 hr) pretreatment. 43 hr after the cells were further incubated with PMA/ionomycin/Brefeldin-A for 5 hr and cells were stained for total B cells, transitional/immature B cells, mature B cells, memory B cells, plasmablasts, or plasma cells and their expression of IL-10 and IL-6. […] (n.s.: not significant).
# (§3) FIGS. 4A-C show GSNO/GSNORi-mediated regulation of IL-10 versus IL-6 in B cell/ASC subsets. […] These in vivo and in vitro data document that GSNO/GSNORi-mediated induction of IL-10 and suppression of IL-6 is not limited to human B10/Breg but to all subsets of B cells and ASCs.
# [5] = tested on: EAE mice; conditions: for blood IL-6 levels / blood IL-10 levels / number of IL-6+ B cells in the CNS and the spleen / numbers of IL-10+ B cells in the CNS and the spleen: 1 mg/kg/day/ip starting day 9; for blood IL-6 levels / blood IL-10 levels: ELISA; for number of IL-6+ B cells in the CNS and the spleen / numbers of IL-10+ B cells in the CNS and the spleen / CNS infiltration of B cells: day 21; for CNS infiltration of B cells: 1 mg/kg/day/ip starting day 9 post-immunization
# Source text: Therefore, the inventors investigated the efficacy of GSNO and GSNORi (N6022) in B cell mediated pathogenesis in autoimmune disorder of EAE, animal model of MS. […] B cells have been recognized as a major source of IL-10 and IL-6 in the blood in MS and EAE.
# [6] = tested on: splenic B cells; assay: ELISpot assay of IL-10 producing splenic B cells; format: cell-based, mice; conditions: 50 μM GSNO, 48 hrs
# [7] = tested on: EAE mice; conditions: N6022 1 mg/kg/day/ip starting day 14, day 21
# Protocol: as §2, §3
# [8] = stimulatory/co-stimulatory conditions
# [9] = stimulatory/costimulatory conditions
# [10] = stimulatory/costimulatory conditions, flow cytometry
Structure (SMILES),expression of anti-inflammatory cytokine IL-10 [1],expression of proinflammatory cytokine IFNγ [1],expression of proinflammatory cytokine IL-6 [1],expression of proinflammatory cytokine TNFα [1],mRNA levels of IL-6 [2],mRNA levels of IL-10 [2],blood IL-6 levels [5],blood IL-10 levels [5],number of IL-6+ B cells in the CNS and the spleen [5],numbers of IL-10+ B cells in the CNS and the spleen [5],CNS infiltration of B cells [5],other results
"N[C@@H](CCC(=O)N[C@@H](CSN=O)C(=O)NCC(=O)O)C(=O)O [GSNO, S-nitrosoglutathione]",induced,inhibit,inhibit,inhibit,down regulate,upregulating,decreased,further increased,decreased,increased,decreased,"number of total B cells (B220+) ([3]; both quiescent and stimulatory/costimulatory conditions, flow cytometry): slightly decreased; IL-6 production ([3]; quiescent conditions): did not affect; IL-10 production ([3]; quiescent conditions): did not affect; number of IL-6+ CD1dhiCD5hi B cells ([3]; stimulation/co-stimulation): decreased; number of IL-10+ CD1dhiCD5hi B cells ([3]; stimulation/co-stimulation): drastically increased; number of total CD1dhiCD5hi B cells ([3]; stimulation/co-stimulation): decreased; IL-6 production [3, 8]: decrease; IL-10 production [3, 8]: increase; number of IL-6+ CD1dloCD5hi B cells [3, 9]: decreasing; number of IL-10+ CD1dloCD5hi B cells [3, 9]: increased; IL-6+ B cells [3, 10]: decreasing; IL-10+ B cells [3, 10]: drastically increased; IL-6+ cells in all subsets of B cells and ASCs [4]: decreased; frequency of IL-10+ cells in all subsets of B cells and ASCs [4]: increased; number of total B cells [4]: no obvious effect; numbers of ASCs (plasmablasts and plasma cells) [4]: increasing; numbers of some subsets of B cells (e.g., immature B cells and memory B cells) [4]: decreased; number of IL-10+ B cells ([6]; B cells from EAE mice, anti-B220 and MOG35-55 coated plates): increased; number of IL-10+ B cells ([6]; B cells from control mice (non-EAE)): did not increase"
O=C(O)c1ccc(-c2ccc3cc(O)ccc3n2)c(Cl)c1 [N91115],induced,inhibit,inhibit,inhibit,down regulate,upregulating,–,–,–,–,–,–
Cc1cc(C(N)=O)ccc1-n1c(CCC(=O)O)ccc1-c1ccc(-n2ccnc2)cc1 [N6022],induced,inhibit,inhibit,inhibit,down regulate,upregulating,decreased,further increased,decreased,increased,decreased,"frequency of IL-6+ cells in almost all B cell and ASC subsets ([7]; CNS as well as spleen): decreased; frequency of IL-10+ cells in almost all B cell and ASC subsets ([7]; CNS as well as spleen): increased; memory B cells in the spleen [7]: most dramatic reduction; numbers of B cells and ASCs in the CNS [7]: decreased; numbers of several subsets of B cells (e.g., Breg and memory B cells) in the spleen [7]: decreased; numbers of the most subsets of B cells and ASCs in the CNS [7]: decreased; splenic ASCs (plasmablasts and plasma cells) [7]: increased"
